Laboratory results as given in PubChem BioAssay AID1347073 (National Center for Advancing Translational Sciences (NCATS), 2019).
Among all 45,000 compounds or so, about 200 (0.44%) were called active. Not shown: some 7% with an inconclusive outcome. Calls come from the whole dose curve; as a rule, active = well fitted activation curve with a large enough effect; inconclusive = small, poorly fitted or top-dose-only effect; inactive = no such curve, though single readings can be large or run the other way. This is one part of the list.

Assay: qHTS of TDP-43 Inhibitors: NCGC Sytravon Library Screen; note: nearly all actives have a fitted effect of over 55% in size; for growth rescue (activation): 0% is about no effect
Settings: yeast TDP-43 toxicity rescue, BacTiter-Glo growth, 24 h; series mostly up to 46.1 µM; growth rescue (activation): at the top concentration
Summary of the method: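 TDP-43-expressing yeast, pregrown in raffinose, seeded at OD600 0.02 in galactose medium with compound for 24 hr at 30 deg C. Growth read by BacTiter-Glo luminescence, so rescue of toxicity appears as activation.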
Potency is the fitted concentration of half-maximal effect.

Compound | growth rescue (activation) | Potency
N#Cc1ccccc1OCC(=O)NNC(=O)CNC(=O)c1ccc(Br)o1 | inactive: 15.9% | –
COc1ccc(C2C(C(=O)c3ccc(C)o3)=C(O)C(=O)N2Cc2cccnc2)cc1OC (stereo not drawn) | inactive: 6.7% | –
CCn1nc(C(=O)Nc2nc3ccccc3[nH]2)c2ccccc2c1=O | inactive: -5.21% | –
C/C(=N\NC(=O)c1ccccc1O)c1ccc(Br)s1 | inactive: -14.8% | –
COC(=O)CSc1nnc(-c2ccc(S(=O)(=O)N3CCCC3)cc2)o1 | inactive: 16.9% | –
Cc1ccc(C)c(CN2C(=O)c3ccccc3S(=O)(=O)c3ccc(C(=O)N(C)C4CCCCC4)cc32)c1 | inactive: 8.54% | –
CC(/C=N/NC(=O)c1ccco1)=C\c1ccccc1 | inactive: 32.8% | –
COC(=O)CCC(=O)N(CCN(C(=O)CCC(=O)OC)c1ccccc1)c1ccccc1 | inactive: -4.96% | –
COc1cc(/C=N/N=C/c2cc(OC)c(O)c(OC)c2)cc(OC)c1O | inactive: -28.4% | –
Cc1nn(-c2ccccc2)c(OC(=O)C(C)C)c1Sc1ccc(Cl)cc1 | inactive: -91.9% | –
COc1ccc(CN(C(=O)c2ccco2)C2CCS(=O)(=O)C2)cc1 (stereo not drawn) | inactive: 12.9% | –
Cc1ccc(OCCC(=O)Nc2ccc(F)c(F)c2)cc1 | inactive: 22.8% | –
Cc1ccc(COc2ccc(S(=O)(=O)N3CCCC3)cc2C(N)=O)cc1 | inactive: 10.5% | –
CCOc1ccccc1NC(=O)Nc1ccccn1 | inactive: 0.667% | –
COc1ccc(C(=O)OCCCN(C)C)cc1OC | inactive: -3.11% | –
C=CCOc1ccccc1CNc1ccccc1C | inactive: -0.265% | –
COCCCn1c(=O)c2ccccc2n(CC(=O)N2CCCc3ccccc32)c1=O | inactive: 1.15% | –
CC(=O)Nc1cccc2c1C(=O)N(c1ccccc1C)C2=O | inactive: 14.1% | –
Cn1nc(-c2ccc(NCCO)c([N+](=O)[O-])c2)c2ccccc2c1=O | inactive: -14.3% | –
COc1cc(NC(=O)COC(=O)CNC(=O)c2cc(C)cc(C)c2)c(C)cc1[N+](=O)[O-] | inactive: 2.43% | –
CCOC(=O)c1c(NC(=O)Cc2cccs2)sc2c1CCCC2 | inactive: -12.4% | –
Cc1cc(C)nc(N/N=C/c2cc(C)n(CC(F)(F)F)c2C)n1 | inactive: 10.7% | –

Compound | growth rescue (activation) | Potency
CCOC(=O)c1cc(-c2ccccc2)sc1NC(=O)C(C)C | inactive: 10.1% | –
CCOC(=O)Cc1[nH]nc2c1C(Cc1ccccc1)C(C#N)=C(N)O2 (stereo not drawn) | inactive: -6.82% | –
CCOc1ccccc1NC(=O)COC(=O)c1nc2nccc(C)n2n1 | inactive: 14.4% | –
O=C(COC(=O)c1cnccn1)Nc1ncc(C(F)(F)F)cc1Cl | inactive: 14.9% | –
Cc1cc(C)c(C)c(S(=O)(=O)Nc2cccc(S(=O)(=O)Nc3ccccc3C(=O)O)c2)c1C | inactive: -35.9% | –
COCC(=O)Nc1cc(C)cn(Cc2c(F)cccc2Cl)c1=O | inactive: 20% | –
O=C(Nc1cccc(Cl)c1)c1cnc2sc(N3CCCC3)nn2c1=O | inactive: 3.8% | –
Nc1c(C(=O)NCc2ccc3c(c2)OCO3)nnn1Cc1cccc(F)c1 | inactive: 8.57% | –
O=Cc1ccc(-c2ccc(Cl)cc2Cl)[nH]1 | inactive: 35.2% | –
OC[C@@H]1CN(Cc2ccc3c(c2)OCO3)C[C@H](n2cnc3c(NCc4ccco4)ncnc32)O1 | inactive: 8.28% | –
CCn1c(N2CCN(C(=O)/C=C/c3ccccc3)CC2)nc2ccccc21 | inactive: -1.81% | –
CCc1ccc(N=C2NC(=O)/C(=C/c3cc(Br)c(OCC(=O)O)c(OC)c3)S2)cc1 | inactive: 13.8% | –
CCN(CC)S(=O)(=O)c1ccc(Oc2ccccc2)c(N)c1 | inactive: 12.1% | –
CC1(C)CC(NC(=O)Cc2ccccc2[N+](=O)[O-])CC(C)(C)N1 | inactive: -5.96% | –
Cn1c(=O)n(C)c2cc(NS(=O)(=O)c3cccs3)ccc21 | inactive: 11.5% | –
CC(C)CNC(=O)CN1c2cccc3cccc(c23)S1(=O)=O | inactive: 13.1% | –
CN(c1cccc(NC(=O)c2ccc(N(C)S(=O)(=O)c3ccccc3)cc2)c1)S(C)(=O)=O | inactive: -1.65% | –
C=CCNC(=O)c1c(Br)cnn1-c1ccc(C)cc1 | inactive: 8.69% | –
CCNc1nc(NC#N)nc(SCC(=O)OCC)n1 | inactive: -3.95% | –
CN1CCC(N(C)C(=O)c2cc(-c3ccc(F)cc3)nc3ccccc23)CC1 | inactive: 8.36% | –
CC(=O)c1c(CSc2ccccc2)oc2ccc(O)c(CN(C)C)c12 | inactive: 2.72% | –
CSc1ccc(C(=O)/C=C/c2ccc(N)cc2)cc1 | inactive: 27.4% | –

Compound | growth rescue (activation) | Potency
CC(NC(=O)Cc1ccsc1)c1ccc(Cl)cc1Cl (stereo not drawn) | inactive: 3.98% | –
Cc1ccc(/C=N/n2c(-c3cccnc3)n[nH]c2=S)o1 | inactive: 10.1% | –
CN1CCN(S(=O)(=O)CC2(C)C3CCC2(C)C(=O)C3Br)CC1 (stereo not drawn) | inactive: 26.3% | –
O=C(CN1CCC(NC(=O)c2cccc(F)c2)CC1)NCc1cccs1 | inactive: -0.496% | –
CCOC(=O)C1CCCN(Cc2nc(C3CC3)no2)C1 (stereo not drawn) | inactive: 1.74% | –
Cc1ccccc1C(=O)c1cccn1CC(=O)NCc1ccccc1 | inactive: 11.1% | –
CC(C)C(N)c1csc(Nc2ccc(C(=O)N(C)Cc3ccccc3)cn2)n1 (stereo not drawn) | inactive: 0.813% | –
O=[N+]([O-])c1cc(/C=N/n2c(-c3cccnc3)n[nH]c2=S)ccc1Cl | inactive: -11.4% | –
CC(C)c1nnc(NC(=O)C2CCN(C(=O)c3ccco3)CC2)s1 | inactive: 15.9% | –
CC1(Oc2ccccc2-c2ccn[nH]2)CCN(Cc2ccc(OC(F)(F)F)cc2)C1 (stereo not drawn) | inactive: 26.8% | –
O=C(CCl)Nc1cccc(-c2cnc3ccccc3n2)c1 | – | active: 12.6 µM
O=C(O)COCC(=O)Nc1ccc(-n2cnnn2)cc1 | inactive: 9.64% | –
CN(C(=O)COC(=O)/C=C/c1ccc(S(=O)(=O)N2CCc3ccccc32)cc1)C1CCS(=O)(=O)C1 (stereo not drawn) | inactive: -5.89% | –
Cc1ccc(-c2cc(-c3ccccc3)c(C#N)c(Br)n2)cc1 | inactive: 14% | –
CCOC(=O)N1CCC(NC(=O)C(C)n2c3ccccc3c3cnn(C)c(=O)c32)CC1 (stereo not drawn) | inactive: 11.9% | –
CC(=O)N1CCc2cc(S(=O)(=O)NC(CC(C)C)C(=O)Nc3ccc4c(c3)OCCO4)ccc21 (stereo not drawn) | inactive: 12.5% | –
CC(=O)c1cc2c(cc1N/C(=N/S(=O)(=O)c1ccc(C)cc1)c1ccccc1)OCO2 | inactive: -5.19% | –
Cc1ccc(NC(=O)C2(C)CCCN2C)cc1C (stereo not drawn) | inactive: 10.9% | –
COCCNC(=S)Nc1ccc2nc(N3CCN(C)CC3)cc(C)c2c1 | inactive: -27.8% | –
CC(=O)NCCc1nc2ccccc2n1Cc1cccc(C)c1 | inactive: 17.4% | –
Cc1ccc(C(C)C)c(OCC(=O)NC(=S)Nc2ccccc2N2CCOCC2)c1 | inactive: 15% | –
CC(=O)c1cccc(N(C(=O)c2ccco2)C(C(=O)NC2CCCC2)c2ccccc2F)c1 (stereo not drawn) | inactive: 9.16% | –

Compound | growth rescue (activation) | Potency
CCOc1cc(S(=O)(=O)n2cnc(C)c2)ccc1Cl | inactive: 15.9% | –
CN(Cc1cnn(C)c1)Cc1nc(Cc2ccccc2Cl)no1 | inactive: 8.48% | –
O=C(COc1cccnc1[N+](=O)[O-])Nc1ccc(Cl)cc1F | inactive: 8% | –
CCCN(CCC)CCOc1cc(C)ccc1C(C)C | inactive: 6.11% | –
CC(=O)Nc1ccc(OCC(=O)NCc2ccccc2)cc1 | inactive: 8.18% | –
Cc1cccc(N2CC(C(=O)Nc3ccccc3N3CCOCC3)CC2=O)c1C (stereo not drawn) | inactive: 20.7% | –
Cc1ccc(NS(=O)(=O)c2ccc(Br)s2)cc1S(=O)(=O)N1CCOCC1 | inactive: 3.8% | –
COc1ccc(C(=O)C2CCCN(C(=O)c3ccc(F)cc3)C2)cc1OC (stereo not drawn) | inactive: 30.7% | –
O=C(NCc1ccc(Cl)cc1)C1CCN(C(=O)c2ccco2)CC1 | inactive: -5.36% | –
COc1ccc(OCCN2CCN(C(=O)c3ccc(OC)cc3)CC2)cc1 | inactive: 9.68% | –
O=C(OCC(=O)N1CCCC1)c1cc(Br)ccc1Cl | inactive: 7.59% | –
CC(C)(C)c1ccc(C(CC(=O)O)NC(=O)c2ccccc2F)cc1 (stereo not drawn) | inactive: 6.02% | –
CC1CCc2c(sc(NC(=O)CSc3nc4c(c(C(F)(F)F)n3)CCc3ccccc3-4)c2C(N)=O)C1 (stereo not drawn) | inactive: 4.13% | –
CCOC(=O)N1CCN(C(=O)c2ccc(NS(=O)(=O)c3ccc(C)cc3)cc2)CC1 | inactive: -0.989% | –
Cc1cccc(C)c1NC(=O)c1cn(-c2ccccc2)nc1-c1ccccc1 | inactive: 1.18% | –
CN(C)c1ccc(/C=N/N(CCC#N)C2=NS(=O)(=O)c3ccccc32)cc1 | inactive: 8.38% | –
CN(C)C(=O)c1cccc(-c2cnc3c(NC=O)cc(-c4cccc(C(F)(F)F)c4)cn23)c1 | inactive: 18.7% | –
CC(C)(C)c1cc(Cl)ccc1OCCOCCN1CCCC1 | inactive: 2.83% | –
CC1CCN(CCCN2C(=O)C3C(C(=O)Nc4cccc(Cl)c4)C4C=CC3(O4)C2C(=O)NC2CCCCC2)CC1 (stereo not drawn) | inactive: 7.23% | –
Cc1nc2ccccc2nc1OCc1cccc([N+](=O)[O-])c1 | inactive: 14.1% | –
CCC(=O)NC1(Cc2ccc(O)cc2)CCCCC1 | inactive: 14.3% | –
CC(C)Oc1ccc(C(=O)NCCCNC(=O)c2cccnc2)cc1 | inactive: 9.35% | –

Compound | growth rescue (activation) | Potency
CN(C)S(=O)(=O)c1cccc(NC(=S)NNC(=O)c2cc3ccccc3cc2O)c1 | inactive: 44% | –
Cc1ccc(NC(=O)C(CC(=O)O)C2CCCO2)c(C)c1 (stereo not drawn) | inactive: -8.48% | –
O=S(=O)(Nc1ccc(F)cc1)N1CCOCC1 | inactive: 13.8% | –
Cc1cc(C)n(/N=C/c2ccccc2O)c(=O)c1 | inactive: 17.6% | –
O=C(NCCO)c1ccc(-c2cnc3cccnn23)cc1 | inactive: 9.82% | –
Cc1ccc(C(=O)Nc2nc(-c3ccc([N+](=O)[O-])cc3)cs2)o1 | inactive: 15.6% | –
Cc1nn(-c2ccccn2)c2c1-c1nc(N3CCOCC3)ncc1CC2 | inactive: -16% | –
COc1ccc(CCC(=O)Nc2ccc(C)c(S(=O)(=O)N(C)C)c2)cc1OC | inactive: -8.83% | –
COc1ccc(/C=N/NC(=O)c2ccc(Br)cc2)c(OC)c1 | inactive: -2.89% | –
Cc1ccc(S(=O)(=O)N2CCN(C(=O)C(C)Cn3nc(C)c(C)c3C)CC2)cc1 (stereo not drawn) | inactive: -4.08% | –
CC1=C(C(=O)Nc2ccccc2F)C(c2cccs2)NC(=S)N1 (stereo not drawn) | inactive: -7.53% | –
COc1ccc(C)cc1Nc1nnc(C)c(=O)[nH]1 | inactive: -3.66% | –
CC(C)(C)c1ccc(-c2nc(SCCCOc3ccccc3)n3[nH]c(=O)cc3n2)cc1 | inactive: 7.74% | –
CCn1c(SCC(=O)NNC(=S)Nc2ccccc2)nnc1-c1ccc(Cl)cc1 | inactive: 17.8% | –
COc1ccc(C(=O)CSc2nnc(CNC(=O)c3ccco3)n2C)cc1OC | inactive: 11.6% | –
Cc1ccc(OCC(=O)NCCCNC(=O)c2cccnc2)cc1 | inactive: 1.73% | –
O=C1NCCN1CCNS(=O)(=O)c1ccccc1[N+](=O)[O-] | inactive: 17.3% | –
CCCCC(=O)NC(=S)Nc1cc(C(=O)O)ccc1Cl | inactive: 4.68% | –
COc1ccc(/C=C2\SC(=S)N(N3CCOCC3)C2=O)c(OC)c1 | inactive: -0.681% | –
CN(C)CCNC(=O)c1ccc2c(=O)n3c(nc2c1)CCCCC3 | inactive: -8.65% | –
